{"source": "the supplement of paper PMC12217912", "parents": {"B1": {"name": "TEV protease; numbered along this chain (parent)", "chain": "MGESLFKGPRDYNPISSSICHLTNESDGHTTSLYGIGFGPFIITNKHLFRRNNGTLVVQSLHGVFKVKDTTTLQQHLVDGRDMIIIRMPKDFPPFPQKLKFREPQREERICLVTTNFQTKSMSSMVSDTSCTFPSGDGIFWKHWIQTKDGQCGSPLVSTRDGFIVGIHSASNFTNTNNYFTSVPKNFMELLTNQEAQQWVSGWRLNADSVLWGGHKVFMVKPEEPFQPVKEATQL"}}, "variants_of": "B1", "experiment": "raw area under fraction-flipped curve 0-4 h after induction (AUC4h, not background-subtracted), DNA-recorder readout of cleavage of the substrate (dimensionless); higher = more cleavage of the substrate by the protease variant", "details": "temperature: 34 °C; time window: 0-4 h after rhamnose induction", "protocol": "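In vivo DNA recorder in E. coli TOP10(DE3) ΔrhaA at 34 °C. Each TEVp single-site mutant (parent TEVp 0) is paired with a single-site variant of the 7-mer TEVs (canonical ENLYFQ|S). The substrate sits between flexible linkers in a Bxb1-sfGFP-TEVs-SsrA fusion, so cleavage stabilises Bxb1 and speeds flipping of a recombination array, read by NGS. The value is the raw area under the fraction-flipped curve over 0-4 h after rhamnose induction (AUC4h), with ≥20 reads per time point. It is not background-subtracted; inactive controls average about 0.047.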", "note": "The list shows a part of the results. Sequences were assembled here from the parent chain. Values near 0.05 are background.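 Further: Bxb1 expression induced with 0.2% (w/v) L-rhamnose at OD600 near 0.5, cultures sampled hourly, flipped fraction per protease–substrate barcode pair counted by paired-end Illumina sequencing.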", "data": [{"variant": "S17H", "values": [{"measurement": "area with substrate ENLYFQA", "result": 0.111}, {"measurement": "area with substrate ENLYFQC", "result": 0.121}, {"measurement": "area with substrate ENLYFQE", "result": 0.0693}, {"measurement": "area with substrate ENLYFQF", "result": 0.0745}, {"measurement": "area with substrate ENLYFQH", "result": 0.0894}, {"measurement": "area with substrate ENLYFQI", "result": 0.0594}, {"measurement": "area with substrate ENLYFQL", "result": 0.0528}, {"measurement": "area with substrate ENLYFQM", "result": 0.0769}, {"measurement": "area with substrate ENLYFQN", "result": 0.0764}, {"measurement": "area with substrate ENLYFQP", "result": 0.0659}, {"measurement": "area with substrate ENLYFQQ", "result": 0.075}, {"measurement": "area with substrate ENLYFQR", "result": 0.0605}, {"measurement": "area with substrate ENLYFQS", "result": 0.111}, {"measurement": "area with substrate ENLYFQT", "result": 0.0665}, {"measurement": "area with substrate ENLYFQW", "result": 0.0632}]}, {"variant": "S17R", "values": [{"measurement": "area with substrate ENLYFQA", "result": 0.086}, {"measurement": "area with substrate ENLYFQC", "result": 0.117}, {"measurement": "area with substrate ENLYFQH", "result": 0.112}, {"measurement": "area with substrate ENLYFQK", "result": 0.0458}, {"measurement": "area with substrate ENLYFQL", "result": 0.0611}, {"measurement": "area with substrate ENLYFQM", "result": 0.0755}, {"measurement": "area with substrate ENLYFQN", "result": 0.0997}, {"measurement": "area with substrate ENLYFQP", "result": 0.0531}, {"measurement": "area with substrate ENLYFQQ", "result": 0.0753}, {"measurement": "area with substrate ENLYFQR", "result": 0.0436}, {"measurement": "area with substrate ENLYFQS", "result": 0.111}, {"measurement": "area with substrate ENLYFQT", "result": 0.0545}, {"measurement": "area with substrate ENLYFQV", "result": 0.0823}, {"measurement": "area with substrate ENLYFQW", "result": 0.07}, {"measurement": "area with substrate ENLYFQY", "result": 0.0825}]}, {"variant": "S17L", "values": [{"measurement": "area with substrate ENLYFQA", "result": 0.0994}, {"measurement": "area with substrate ENLYFQC", "result": 0.119}, {"measurement": "area with substrate ENLYFQG", "result": 0.0901}, {"measurement": "area with substrate ENLYFQH", "result": 0.0867}, {"measurement": "area with substrate ENLYFQK", "result": 0.0655}, {"measurement": "area with substrate ENLYFQL", "result": 0.0692}, {"measurement": "area with substrate ENLYFQM", "result": 0.0851}, {"measurement": "area with substrate ENLYFQN", "result": 0.0657}, {"measurement": "area with substrate ENLYFQP", "result": 0.0614}, {"measurement": "area with substrate ENLYFQR", "result": 0.0691}, {"measurement": "area with substrate ENLYFQS", "result": 0.104}, {"measurement": "area with substrate ENLYFQT", "result": 0.0544}, {"measurement": "area with substrate ENLYFQV", "result": 0.0625}, {"measurement": "area with substrate ENLYFQW", "result": 0.0517}, {"measurement": "area with substrate ENLYFQY", "result": 0.0753}]}, {"variant": "S17E", "values": [{"measurement": "area with substrate ENLYFQA", "result": 0.0948}, {"measurement": "area with substrate ENLYFQC", "result": 0.115}, {"measurement": "area with substrate ENLYFQE", "result": 0.0578}, {"measurement": "area with substrate ENLYFQF", "result": 0.0701}, {"measurement": "area with substrate ENLYFQG", "result": 0.101}, {"measurement": "area with substrate ENLYFQH", "result": 0.0791}, {"measurement": "area with substrate ENLYFQI", "result": 0.058}, {"measurement": "area with substrate ENLYFQK", "result": 0.0632}, {"measurement": "area with substrate ENLYFQL", "result": 0.0131}, {"measurement": "area with substrate ENLYFQM", "result": 0.103}, {"measurement": "area with substrate ENLYFQN", "result": 0.0787}, {"measurement": "area with substrate ENLYFQP", "result": 0.0712}, {"measurement": "area with substrate ENLYFQQ", "result": 0.0564}, {"measurement": "area with substrate ENLYFQR", "result": 0.0616}, {"measurement": "area with substrate ENLYFQS", "result": 0.106}, {"measurement": "area with substrate ENLYFQT", "result": 0.0806}, {"measurement": "area with substrate ENLYFQW", "result": 0.0765}, {"measurement": "area with substrate ENLYFQY", "result": 0.0558}]}, {"variant": "S17N", "values": [{"measurement": "area with substrate ENLYFQA", "result": 0.0984}, {"measurement": "area with substrate ENLYFQC", "result": 0.0788}, {"measurement": "area with substrate ENLYFQD", "result": 0.0819}, {"measurement": "area with substrate ENLYFQG", "result": 0.108}, {"measurement": "area with substrate ENLYFQH", "result": 0.0789}, {"measurement": "area with substrate ENLYFQI", "result": 0.0575}, {"measurement": "area with substrate ENLYFQK", "result": 0.0672}, {"measurement": "area with substrate ENLYFQL", "result": 0.0652}, {"measurement": "area with substrate ENLYFQM", "result": 0.0879}, {"measurement": "area with substrate ENLYFQN", "result": 0.0728}, {"measurement": "area with substrate ENLYFQP", "result": 0.0531}, {"measurement": "area with substrate ENLYFQQ", "result": 0.0655}, {"measurement": "area with substrate ENLYFQR", "result": 0.0565}, {"measurement": "area with substrate ENLYFQS", "result": 0.104}, {"measurement": "area with substrate ENLYFQT", "result": 0.0537}, {"measurement": "area with substrate ENLYFQW", "result": 0.0619}, {"measurement": "area with substrate ENLYFQY", "result": 0.076}]}]}
